According to PubChem BioAssay AID1963576 (National Center for Advancing Translational Sciences (NCATS), 2024):
About 60 (0.1%) of roughly 46,000 compounds were called active. Inconclusive results (about 3%) are left out. Calls come from the whole dose curve; as a rule, active = well fitted inhibition curve with a large enough effect; inconclusive = small, poorly fitted or top-dose-only effect; inactive = no such curve, though single readings can be large or run the other way. The list shows a part of the results.

Experiment: Primary qHTS assay for Inhibitors of ovarian cancer metastasis using an organotypic tumor microenvironment (TME) model.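 For activity change, negative = inhibition: plate controls were DMSO wells for no effect and tomatine positive control wells for full effect.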 Note: nearly all actives have a fitted effect of over 65% in size.
Details: SKOV3ip1-GFP adhesion/invasion on 3D omental model, fluorescence; series mostly up to 45.8 µM; activity change, negative = inhibition: at the top concentration
How it was run: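 qHTS, 4-pt dose (0.36-46 umol/L); SKOV3ip1-GFP, 1,200 cells/well, no FBS; primary omental fibroblast/mesothelial co-culture 48 h pre-grown; 2 h RT + 16 h 37 C; PBS wash, 4% PFA; GFP count 488/509 nm.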

| SMILES | activity change, negative = inhibition | outcome |
| --- | --- | --- |
| CCOc1ccc(NC(=O)Cn2c(=O)n(Cc3ccc(C(=O)NCc4ccc(C)cc4)cc3)c(=O)c3ccccc32)cc1 | inactive: -17.9% |  |
| Cc1ccc(CSC2=Nc3ccccc3C3=NC(CC(=O)NCc4cccs4)C(=O)N23)cc1 (stereo not drawn) | inactive: 0.621% |  |
| Cc1ccc(CNC(=O)c2cc3c(s2)-c2ccc(Cl)cc2SC3)cc1 | inactive: -4.25% |  |
| CN(C)c1ccc(NC(=O)CN2CCN(CC(=O)Nc3ccc(Br)cc3)CC2)cc1 | inactive: 5.94% |  |
| Cc1ccc(-c2nc3ncccc3o2)cc1NC(=O)c1ccccc1Br | inactive: -4.36% |  |
| CCc1cccc(NC(=O)Cn2c(=O)n(CCC(=O)NCC3CCCO3)c(=O)c3cc(OC)c(OC)cc32)c1 (stereo not drawn) | inactive: -3.36% |  |
| CC(C)(C)c1ccc(-c2nc(S(=O)(=O)c3ccccc3)c(N3CCOCC3)o2)cc1 |  | inactive |
| CCOc1ccc(NC(=O)NCCn2nnc3cc(S(=O)(=O)N(C)C)ccc32)cc1 | inactive: -13.9% |  |
| O=C(NCC1CCCO1)c1c[nH]c2ccc(S(=O)(=O)Nc3ccc(F)cc3F)cc2c1=O (stereo not drawn) | inactive: 0.323% |  |
| CCN(C(=O)C1CCCN(c2ncnc3onc(-c4ccc(F)cc4)c23)C1)c1ccccc1 (stereo not drawn) | inactive: -5.58% |  |
| O=C(c1cccc(F)c1)N1CCC(c2c[nH]c3ccccc23)(c2c[nH]c3ccccc23)CC1 | inactive: 13.9% |  |
| COc1ccc(C(=O)Nc2nnc(S(=O)(=O)N3CCC(C)CC3)s2)cc1OC |  | inactive |
| CCOc1ccc(C(CC(=O)Nc2cc(C)c(Cl)cc2OC)N2Cc3ccccc3C2=O)cc1OC (stereo not drawn) | inactive: 26.4% |  |
| Cc1ccc(CNC(=O)c2sc3nc(-c4ccc(F)cc4)ccc3c2N)cc1 | inactive: 7.13% |  |
| COc1cccc(CNS(=O)(=O)c2ccc(N3CCCCS3(=O)=O)cc2)c1 | inactive: -0.902% |  |
| CCOC(=O)C1=C(CN2CCCCC2)NC(=O)NC1c1ccc(C)cc1 (stereo not drawn) |  | inactive |
| CC1CCCCN1Cc1c(O)ccc2c(=O)c(-c3ccccc3)coc12 (stereo not drawn) |  | inactive |
| COc1cccc(CNC(=O)CCCn2nc(C)n3c(cc4sccc43)c2=O)c1 | inactive: -1.52% |  |
| COc1ccc(C2CC(=O)c3c([nH]c(C(=O)OC4CCCCCC4)c3C)C2)cc1OC (stereo not drawn) | inactive: 1.76% |  |
| COc1ccc(-n2nnc(-c3nc(-c4ccccc4C)no3)c2N)cc1Cl | inactive: 1.51% |  |
| COc1ccc(-c2cc(C(=O)N3CCN(c4ccc(F)cc4)CC3)no2)cc1OC | inactive: -6.11% |  |
| COC(=O)c1ccccc1NC(=O)CCc1c(C)nc2c(c(C)nn2-c2ccccc2)c1C | inactive: 2.44% |  |
| COc1ccc(Cn2ccc3nc(C)c(C(=O)NCc4ccc(OC)cc4OC)cc3c2=O)cc1 | inactive: -1.24% |  |
| CCOC(=O)c1cc(-c2ccc(F)cc2)n(CCC(=O)NCc2ccccc2OC)c1C |  | inactive |

| SMILES | activity change, negative = inhibition | outcome |
| --- | --- | --- |
| COc1ccc(NC(=O)C(C)n2c(C)c3cnn(-c4ccccc4)c(=O)c3c2C)cc1Cl (stereo not drawn) | inactive: 27.9% |  |
| O=C(Cn1ncc2c([nH]c3ccccc32)c1=O)NCc1cccc(Cl)c1 | inactive: -0.148% |  |
| CCOC(=O)c1cnc2c(C)cc(Cl)cc2c1NCCc1ccc(OC)c(OC)c1 | inactive: -0.0812% |  |
| Cc1cccc(OCC(=O)N(Cc2ccc(C(C)C)cc2)Cc2ccco2)c1C | inactive: -7.47% |  |
| O=C(Nc1nnc(S(=O)(=O)N2CCCC2)s1)c1ccccc1F | inactive: -2.43% |  |
| CCN(C(=O)c1nn(-c2ccc(C)cc2)c(=O)c2c1c1ccccc1n2C)c1ccc(F)cc1 | inactive: 0.796% |  |
| O=C(NCCc1ccccc1)c1ccc(CSc2nc3ccncc3n2Cc2ccccc2F)cc1 | inactive: -20.3% |  |
| CC(C)COc1ccc(-c2nonc2NC(=O)c2ccc(F)cc2)cc1 | inactive: -17.3% |  |
| Cc1ccc(N2CC(NC(=O)c3ccco3)CC2=O)cc1C (stereo not drawn) |  | inactive |
| CCc1cnn2c(NCc3ccc[n+]([O-])c3)cc(N3CCCC[C@@H]3CCO)nc12 | inactive: -2.2% |  |
| CCOc1ccc(NC(=O)Cc2ccc(-n3c(C)nc4cccnc43)cc2)cc1 | inactive: -22% |  |
| CCOC(=O)C1CCCN(Cc2cn3c(-c4ccc(Br)cc4)nnc3s2)C1 (stereo not drawn) |  | inactive |
| O=C(CC1N=C2c3ccccc3N=C(SCc3ccccc3Cl)N2C1=O)NCc1cccs1 (stereo not drawn) | inactive: -14% |  |
| COc1ccc(NC(=O)C(=O)NCC(c2cccnc2)N2CCc3ccccc3C2)cc1 (stereo not drawn) | inactive: 9.33% |  |
| COc1ccc(NC(=O)C(NC(=O)/C=C\c2ccc3c(c2)OCO3)c2ccc(OC)cc2)cc1 (stereo not drawn) | inactive: 7.13% |  |
| CN(C(=O)c1ccc2c(c1)N(Cc1ccccc1F)C(=O)c1ccccc1S2(=O)=O)C1CCCCC1 |  | inactive |
| O=C(Nc1cc(Cl)ccc1Cl)c1cc(S(=O)(=O)N2CCCc3ccccc32)ccc1F | inactive: -13.2% |  |
| Cc1ccc(NC(=O)CN2C(=O)c3ccccc3Sc3ccc(C(=O)N4CCCC4)cc32)cc1 | inactive: 15.5% |  |
| Cc1ccc(-n2nc(C(=O)Nc3cccc(C#N)c3)c3c4ccccc4n(C)c3c2=O)cc1 | inactive: -9.3% |  |
| CC1=C(C(=O)Nc2cccnc2)C(c2ccc(Cl)cc2)n2nc(SCc3ccccc3)nc2N1 (stereo not drawn) | inactive: 0.919% |  |
| COC(=O)c1c(NC(=O)COc2c(C)ccc(C)c2C)sc2c1CCC(C)C2 (stereo not drawn) | inactive: -7.14% |  |
| Cc1cc2n(n1)CCC(=O)N2Cc1ccc(C(=O)Nc2ccc(Br)c(C)c2)cc1 | inactive: -0.955% |  |
| O=C(NCCc1ccc(Cl)cc1)c1nc(-c2cccc(F)c2)n2c1CCCCC2 | inactive: 2.3% |  |
| CCCN1CCN(c2ncnc3sc(C(=O)Nc4cccc(Cl)c4C)c(C)c23)CC1 |  | inactive |

| SMILES | activity change, negative = inhibition | outcome |
| --- | --- | --- |
| O=C(Cn1ncc2ccsc2c1=O)N1CCN(c2ccccc2)CC1 | inactive: 3.64% |  |
| CCCSc1nc2c(c(=O)[nH]1)C(c1ccc(F)cc1F)CC(=O)N2 (stereo not drawn) | inactive: 2.73% |  |
| CCN(CC)c1cc2c(cc1F)c(=O)c(S(=O)(=O)c1ccc(C)cc1)cn2Cc1ccc(F)cc1 | inactive: -11.3% |  |
| O=S(=O)(Nc1cccc(-c2ccc(N3CCOCC3)nn2)c1)c1ccccc1C(F)(F)F |  | inactive |
| CCOc1ccc(NC(=O)[C@H](Cc2ccccc2)N2Cc3ccccc3C2=O)cc1 |  | inactive |
| CCOc1ccccc1Nc1sc(C(=O)c2ccc(Cl)cc2)c(N)c1C(=O)NCCc1ccccc1 | inactive: 1.51% |  |
| CCCc1nnc(NC(=O)Cc2coc3ccc(C)cc23)s1 | inactive: 4.78% |  |
| O=C(Cn1c(=O)n(CCc2ccccc2)c(=O)c2c3c(sc21)CCCC3)Nc1ccc(F)c(F)c1 | inactive: -9.23% |  |
| Brc1ccc(CN2CCc3nc(N4CCN(c5ncccn5)CC4)ncc3C2)cc1 | inactive: 1.7% |  |
| CC(C)c1ccccc1Oc1c(C(F)(F)F)oc2c(CN3CCN(C)CC3)c(O)ccc2c1=O | inactive: -1.4% |  |
| Cn1c(-c2ccc(S(=O)(=O)N3CCCC3)cc2)csc1=Nc1ccc(Cl)c(Cl)c1 |  | inactive |
| COc1ccc(NC(=O)CSc2nc3c(c(=O)[nH]2)CCC3)cc1 | inactive: -2.23% |  |
| CCC1CCc2nc3sc(C(=O)Nc4ccc(F)c(F)c4)c(N)c3cc2C1 (stereo not drawn) |  | inactive |
| CCOC(=O)c1c(C)c(C(=O)NCc2ccc(Cl)cc2)c(C)n1CC | inactive: 0.266% |  |
| COc1ccc(NCc2cc3ccc(OC)cc3n(CC(=O)Nc3cccc(OC)c3)c2=O)cc1 | inactive: -6.26% |  |
| COc1ccc(OC)c(S(=O)(=O)Nc2cccc(-c3ccc(N4CCCCCC4)nn3)c2)c1 | inactive: 3.78% |  |
| CCOc1ccc(-c2nc(CNC(=O)Nc3ccccc3)c(C)o2)cc1 | inactive: -18.8% |  |
| COc1ccccc1N1CCN(C(=O)c2cc3c(=O)oc4ccc(C)cc4c3s2)CC1 | inactive: -7.64% |  |
| Cc1ccc(CNC(=O)c2cn(C)c3ccc(S(=O)(=O)N4CCOCC4)cc3c2=O)cc1 | inactive: 1.56% |  |
| Cc1ccccc1NC(=O)CSc1nc2ccccc2c2nc(CCn3c(C)nc4ccccc43)nn12 |  | inactive |
| Cc1cc(C)c(/C=C/c2onc(C)c2S(=O)(=O)N2CCC(C(=O)Nc3ccc(Cl)cc3C)CC2)c(C)c1 |  | inactive |
| O=C(COCc1cc(-c2cccs2)on1)NCc1cccc(Cl)c1 |  | inactive |
| CCn1c(C(=O)N2CCC(C(=O)NCCCOC)CC2)cc2sccc21 |  | inactive |
| COc1cc(NC(=O)c2nn(-c3ccc(F)cc3)c(=O)n(C)c2=O)cc(OC)c1OC | inactive: 9.83% |  |

| SMILES | activity change, negative = inhibition | outcome |
| --- | --- | --- |
| Cc1cn(S(=O)(=O)c2ccc(F)c(Cl)c2)cn1 |  | inactive |
| Cc1ccccc1NC(=O)c1c(NC(=O)C(F)(F)F)sc2c1CCCCC2 |  | inactive |
| O=c1cc(CN2CCN(S(=O)(=O)c3ccccc3)CC2)nc2sc(-c3ccccc3Cl)nn12 | inactive: -3.35% |  |
| O=c1c2c3c(sc2n(Cc2cc(=O)n4ccccc4n2)c(=O)n1-c1ccccc1)CCC3 |  | inactive |
| Cc1ccc(C)c(NC(=O)c2nnn(CC(=O)Nc3cccc(C)c3C)c2N)c1 | inactive: 17.9% |  |
| CC(=O)c1ccc(NC(=O)COc2ccccc2-c2nc(-c3ccccc3)no2)cc1 | inactive: 11.7% |  |
| COCc1cc(C)nc2sc3c(c12)NC(c1ccccc1C(=O)O)N(c1ccc(OC)cc1)C3=O (stereo not drawn) | inactive: 5.78% |  |
| CC(Oc1ccccc1)C(=O)N1CCN(Cc2cc(=O)n3nc(-c4ccccc4Cl)sc3n2)CC1 (stereo not drawn) | inactive: -2% |  |
| O=C(CCSCc1ccccc1Cl)N1CCN(c2ccc(F)cc2)CC1 |  | inactive |
| CCOC(=O)c1c(C)[nH]c(C)c1S(=O)(=O)NCC(=O)N1CCN(c2cc(Cl)ccc2C)CC1 | inactive: 3.28% |  |
| CCc1ccc(C(=O)c2cn(CC(=O)Nc3ccc4c(c3)OCCO4)c3ccc(C)cc3c2=O)cc1 | inactive: -4% |  |
| O=C(CS(=O)(=O)c1nc(-c2ccc(Cl)cc2)cn1-c1ccccc1)Nc1ccc(F)cc1F | inactive: -19% |  |
| Cc1ccc(NC(=O)C(Cc2ccccc2)NS(=O)(=O)c2cccs2)cc1Cl (stereo not drawn) |  | inactive |
| Cc1ccc(-c2noc(CSc3nnc(C)n3-c3ccc(C)cc3)n2)cc1 |  | inactive |
| COc1ccccc1CNC(=O)CN1C(=O)c2cccnc2Oc2ccccc21 |  | inactive |
| Cc1ccc(-n2c(SCCC(C)C)nc3sc4c(c3c2=O)CC(C)(C)OC4)cc1 | inactive: -2.7% |  |
| CCOc1ccc(CNC(=O)C2CCN(C(=O)c3sccc3-n3cccc3)CC2)cc1 | inactive: -0.634% |  |
| COc1ccc(-c2cc(C(C)=O)c(C)n2CCC(=O)NC2CCCCC2)cc1 | inactive: 6.02% |  |
| COc1ccc(/C=C/c2onc(C)c2S(=O)(=O)N2CCC(C(=O)N3CCCCC3)CC2)cc1 | inactive: 1.69% |  |
| COc1ccc(OCCSc2nc3ccccc3n2CC(=O)N2CCOCC2)cc1 | inactive: 4.46% |  |
| COc1ccc(NC(=O)CCCc2nnc3n(CCC(C)C)c(=O)c4sccc4n23)cc1Cl | inactive: -0.807% |  |
